± gives the standard deviation of the averaged measurements. Laboratory Escherichia coli strains with one amino-acid change in an essential protein, pooled on minimal glucose agar with carbenicillin or gentamicin at twice the control MIC (plus kanamycin and chloramphenicol for the plasmids), 48 h. Fold change of barcode share against drug-free plates; higher = less susceptible. Active = above 20 in both replicates (the paper's putatively resistant). '<' = one read or none on drug, '>' = one read or none on a drug-free plate. Shares are relative, so most strains fall below 1 when a few take over. Listed are strains with at least 15 reads on both drug-free plates, and hits; most hits rest on fewer reference reads. Replicate rank correlation about 0.5. Edits are read from barcodes.
B1: argE; a variant is named by its letters at X, in order (parent)
chain: MKNKLPPFIEIYRALIATPSISATEEALDQSNADLITLXADWFKDLGFNVEVQPVPGTRNKFNMLASIGQGAGGLLLAGHTDTVPFDDGRWTRDPFTLTEHDGKLYGLGTADMKGFFAFILDALRDVDVTKLKKPLYILATADEETSMAGARYFAETTALRPDCAIXGEPTSLQPVRAHKGHISNAIRIQGQSGHSSDPARGVNAIELMHDAIGHILQLRDNLKERYHYEAFTVPYPTLNLGHIHGGDASNRICACCELHMDIRPLPGMTLNELNGLLNDALAPVSERWPGRLTVDELHPPIPGYECPPNHQLXEVXEKLLGAKTEVXNYCTEAPFIQTLCPTLVLGPGSINQAHQPDEYLETRFIKPTRELITQVIHHFCWH
B2: purC; numbered along this chain (parent)
chain: MQKQAELYRGKAKTVYSTENPDLLVLEFRNDTSAGDGARIEQFDRKGMVNNKFNYFIMSKLAEAGIPTQMERLLSDTECLVKKLDMVPVECVVRNRAAGSLVKRLGIEEGIELNPPLFDLFLKNDAMHDPMVNESYCETFGWVSKENLARMKELTYKANDVLKKLFDDAGLILVDFKLEFGLYKGEVVLGDEFSPDGSRLWDKETLEKMDKDRFRQSLGGLIEAYEAVARRLGVQLD
B3: lptD; numbered along this chain (parent)
chain: MKKRIPTLLATMIATALYSQQGLAADLASQCMLGVPSYDRPLVQGDTNDLPVTINADHAKGDYPDDAVFTGSVDIMQGNSRLQADEVQLHQKEAPGQPEPVRTVDALGNVHYDDNQVILKGPKGWANLNTKDTNVWEGDYQMVGRQGRGKADLMKQRGENRYTILDNGSFTSCLPGSDTWSVVGSEIIHDREEQVAEIWNARFKVGPVPIFYSPYLQLPVGDKRRSGFLIPNAKYTTTNYFEFYLPYYWNIAPNMDATITPHYMHRRGNIMWENEFRYLSQAGAGLMELDYLPSDKVYEDEHPNDDSSRRWLFYWNHSGVMDQVWRFNVDYTKVSDPSYFNDFDNKYGSSTDGYATQKFSVGYAVQNFNATVSTKQFQVFSEQNTSSYSAEPQLDVNYYQNDVGPFDTRIYGQAVHFVNTRDDMPEATRVHLEPTINLPLSNNWGSINTEAKLLATHYQQTNLDWYNSRNTTKLDESVNRVMPQFKVDGKMVFERDMEMLAPGYTQTLEPRAQYLYVPYRDQSDIYNYDSSLLQSDYSGLFRDRTYGGLDRIASANQVTTGVTSRIYDDAAVERFNISVGQIYYFTESRTGDDNITWENDDKTGSLVWAGDTYWRISERWGLRGGIQYDTRLDNVATSNSSIEYRRDEDRLVQLNYRYASPEYIQATLPKYYSTAEQYKNGISQVGAVASWPIADRWSIVGAYYYDTNANKQADSMLGVQYSSCCYAIRVGYERKLNGWDNDKQHAVYDNAIGFNIELRGLSSNYGLGTQEMLRSNILPYQNTL

Variants of: B1
Assay: barcode share on antibiotic plates over drug-free plates; higher = less susceptible
Settings: with Escherichia coli (laboratory strain); antibiotic: gentamicin; 2× MIC (MIC 0.45 µg/mL)
Description: (§1)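 A pool of E. coli strains, each edited to carry one amino-acid change in an essential protein, was grown for 48 h on minimal glucose agar with or without antibiotic; strain barcodes were sequenced; mean of two replicates.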

| Variant | fold change of barcode share |
| --- | --- |
| LIVAV | < 0.00402 |
| LIVVP | 0.00812 ± 0.004 |
| LIVVW | 0.0319 ± 0.021 |
| LIVVD | 0.0127 ± 0.012 |
| LIVVQ | 0.00538 ± 0.0037 |
| LIVVA | 0.0101 ± 0.0086 |
| AIVVV | 0.00892 ± 0.0069 |
| DIVVV | 0.00586 ± 0.0022 |
| QIVVV | 0.0116 ± 0.011 |
| LIQVV | 0.00822 ± 0.0013 |
| WIVVV | 0.0133 ± 0.011 |
| LIVPV | < 0.00871 |
| LAVVV | 0.00621 ± 0.002 |
| LIVVV M209W | < 0.0154 |
| LIVVV M209Q | < 0.0109 |
| LQVVV | 0.0177 ± 0.012 |
| LIVVV I216A | 0.00516 ± 0.00088 |

Same assay, conditions: with Escherichia coli (laboratory strain); antibiotic: carbenicillin; 2× MIC (3.1 µg/mL)

| Variant | fold change of barcode share |
| --- | --- |
| LIVVP | 0.294 ± 0.14 |
| LIVVD | 0.343 ± 0.067 |
| LIVVQ | 0.314 ± 0.03 |
| LIVVA | 0.296 ± 0.048 |
| AIVVV | 0.522 ± 0.11 |
| DIVVV | 0.333 ± 0.03 |
| QIVVV | 0.305 ± 0.088 |
| WIVVV | 0.293 ± 0.03 |
| LIVPV | 1.21 ± 1.4 |
| LAVVV | 1.14 ± 0.47 |
| LIVVV M209W | 0.232 ± 0.16 |
| LIVVV M209Q | 0.601 ± 0.37 |
| LQVVV | 1.37 ± 0.4 |
| LIVVV I216A | 0.473 ± 0.063 |

Variants of: B2
Assay: as above
Settings: with Escherichia coli (laboratory strain); antibiotic: carbenicillin; 2× MIC (3.1 µg/mL)
Description: as §1

| Variant | fold change of barcode share |
| --- | --- |
| V25W | 0.245 ± 0.17 |
| V89W | 0.251 ± 0.11 |
| V89A | 0.478 ± 0.18 |
| V188W | 0.217 ± 0.14 |
| V188P | > 29.6 [active] |
| V188A | 0.302 ± 0.12 |
| V188D | 1.41 ± 0.49 |
| V188Q | 0.512 ± 0.13 |
| L189P | 0.767 ± 0.14 |
| L189A | 0.427 ± 0.092 |
| L189W | 0.369 ± 0.1 |
| L189Q | 0.356 ± 0.15 |

Same assay, conditions: with Escherichia coli (laboratory strain); antibiotic: gentamicin; 2× MIC (MIC 0.45 µg/mL)

| Variant | fold change of barcode share |
| --- | --- |
| V25W | < 0.00992 |
| V25Q | 0.0342 ± 0.03 |
| V25P | < 0.0146 |
| V25A | < 0.0142 |
| V89W | 0.0524 ± 0.05 |
| V89A | 0.0113 ± 0.0059 |
| V188W | 0.0112 ± 0.0092 |
| V188A | 0.00296 ± 0.0018 |
| V188D | 0.0157 ± 0.0096 |
| V188Q | 0.0109 ± 0.011 |
| L24A | < 0.0168 |
| L24W | 0.01 ± 0.0043 |
| L24Q | < 0.0203 |
| L189P | 0.023 ± 0.015 |
| L189A | 0.00455 ± 0.00046 |
| L189W | 0.00393 ± 0.0022 |
| L189Q | 0.00493 ± 0.0033 |
| L26Q | < 0.0177 |
| L26P | < 0.01 |

Variants of: B3
Assay: as above
Settings: with Escherichia coli (laboratory strain); antibiotic: carbenicillin; 2× MIC (3.1 µg/mL)
Description: as §1

| Variant | fold change of barcode share |
| --- | --- |
| I664P | 0.421 ± 0.046 |
| I664D | 0.226 ± 0.014 |
| I664W | 0.392 ± 0.081 |
| I664A | 0.415 ± 0.14 |
| I664Q | 0.354 ± 0.0059 |
| L736A | 0.332 ± 0.076 |
| L736D | 0.184 ± 0.074 |
| L736Q | 0.316 ± 0.18 |
| L736W | 0.177 ± 0.055 |
| L540P | 0.17 ± 0.023 |
| L540D | 0.0713 ± 0.053 |
| L651A | 0.256 ± 0.086 |
| L651P | 0.131 ± 0.013 |
| F417A | 0.554 ± 0.21 |
| F417D | 0.215 ± 0.062 |
| F417W | 0.152 ± 0.068 |
| F417P | 0.14 ± 0.072 |
| F417Q | 0.407 ± 0.23 |
| I582W | 0.213 ± 0.0032 |
| I582D | 1.22 ± 1.1 |

Same assay, conditions: with Escherichia coli (laboratory strain); antibiotic: gentamicin; 2× MIC (MIC 0.45 µg/mL)

| Variant | fold change of barcode share |
| --- | --- |
| I664P | 0.00704 ± 0.0057 |
| I664D | < 0.00351 |
| I664W | 0.00523 ± 0.0024 |
| I664A | 0.00566 ± 0.0033 |
| I664Q | 0.0243 ± 0.021 |
| L736A | < 0.0102 |
| L736D | < 0.0116 |
| L736Q | < 0.0177 |
| L736W | < 0.00992 |
| L540W | < 0.0168 |
| L540Q | < 0.0168 |
| L540P | < 0.0175 |
| L540D | < 0.0164 |
| L651W | < 0.0146 |
| L651A | < 0.00866 |
| L651D | < 0.00749 |
| L651P | < 0.015 |
| F417A | < 0.0112 |
| F417D | < 0.0104 |
| F417W | < 0.00948 |
| F417P | < 0.0117 |
| F417Q | < 0.014 |
| I582W | < 0.0164 |
| I582D | < 0.0171 |

— the supplement of paper PMC11876631
